The results in this text go back to the supplement of paper PMC3724861.

The other results are listed elsewhere or left out. Bounds are passed on as bounds.

For this assay, the system named is T1, Caupolican (Caup) homeodomain DNA-binding domain.
T1 sequence: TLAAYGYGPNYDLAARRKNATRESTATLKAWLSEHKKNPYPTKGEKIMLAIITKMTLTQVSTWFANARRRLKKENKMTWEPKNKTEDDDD
As to the kind of experiment: PBM E-score (8-mer, recovered from the published 9-mer minima) (E-score (dimensionless, -0.5 to 0.5)); Drosophila protein; higher = stronger relative binding preference, active = 0.31 or more. The gist of the method: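 Caup's homeodomain DNA-binding domain (residues 214-303) was produced by in vitro transcription and translation and applied at 100 nM to custom-designed protein binding microarrays. Each value is an enrichment score giving relative binding preference for a short DNA word; higher means stronger. Published 9-mer scores were the minimum of their two constituent 8-mer scores, and the 8-mer values were recovered from those minima. A cutoff of 0.31 marks candidate binding sequences.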
Turning to AACACATC, the “PBM E-score” value is inactive: 0.202.

On to GGTTACTA, for which the “PBM E-score” value is inactive: 0.0657.

ACACCCTA: the “PBM E-score” value is at least 0.193.

For AAGCAACC, the “PBM E-score” value was inactive: 0.0108.

CCGCAGCC: the “PBM E-score” value is inactive: -0.25.

As for AGTTGAAG, the “PBM E-score” value was inactive: 0.0488.

Take CACATAAC: the “PBM E-score” value was inactive: 0.223.

On to CCGTTCGC, for which the “PBM E-score” value was inactive: -0.121.

For the sequence AACTGACG, the “PBM E-score” value is inactive: -0.0576.

For the sequence GCCTGTCA, the “PBM E-score” value is inactive: 0.0712.

Turning to CCTCTGGA, the “PBM E-score” value is inactive: -0.169.

Take ACATAAGG: the “PBM E-score” value was inactive: 0.2.

On to ATCGGAAT, for which the “PBM E-score” value was inactive: 0.11.

As to CGCGCATA, the “PBM E-score” value is inactive: -0.00482.

For the sequence AGGAACCG, the “PBM E-score” value is inactive: -0.0874.

Take CACGCGAC: the “PBM E-score” value was inactive: -0.00214.

GGACGGTA: the “PBM E-score” value is inactive: -0.0402.

As for AGGACGAT, the “PBM E-score” value was at least 0.0577.

As for AATATACA, the “PBM E-score” value was active: 0.322.

On to GGTGGTGA, for which the “PBM E-score” value was inactive: -0.0929.

TAACCTTA: the “PBM E-score” value was inactive: -0.0537.

As to ATATGTCG, the “PBM E-score” value was inactive: 0.302.

In the case of ACGAACTC, the “PBM E-score” value was inactive: -0.00652.

Regarding GGCTGGAC, the “PBM E-score” value was inactive: -0.225.

CTCCTTAA: the “PBM E-score” value was inactive: -0.152.

AGTCACTG: the “PBM E-score” value is inactive: -0.0797.

As to ATTTAAAC, the “PBM E-score” value was inactive: 0.233.

For CAGGACGG, the “PBM E-score” value is inactive: -0.0596.

With ATCTCAAT, the “PBM E-score” value is inactive: 0.0735.

For the sequence ACAGTGCT, the “PBM E-score” value is inactive: 0.00703.

Consider ACGCTAAT, for which the “PBM E-score” value is inactive: -0.0257.

As for CCATTGCC, the “PBM E-score” value was inactive: -0.226.

As for CCGATGAG, the “PBM E-score” value was inactive: -0.0517.

Consider CCGAATCC, for which the “PBM E-score” value is inactive: -0.0248.

As for GGTGTGTA, the “PBM E-score” value is inactive: 0.258.

As to GCTCAAGA, the “PBM E-score” value is inactive: -0.183.

In the case of CTGTATTC, the “PBM E-score” value is inactive: 0.166.

Turning to CTCCGCGA, the “PBM E-score” value is inactive: -0.142.

For the sequence AGTCTCCA, the “PBM E-score” value is inactive: -0.0921.

On to CGCTCGCC, for which the “PBM E-score” value was inactive: -0.18.

As for ACATCCTC, the “PBM E-score” value is inactive: 0.199.

As for ACCTTGAC, the “PBM E-score” value was inactive: 0.0207.

On to ATCTCACC, for which the “PBM E-score” value is inactive: -0.0234.

For the sequence TAATGGCA, the “PBM E-score” value was inactive: 0.012.

Consider CTCTTGCA, for which the “PBM E-score” value is inactive: -0.0814.

As to TTGGCAAA, the “PBM E-score” value was inactive: 0.0506.

As to GGGTAGAC, the “PBM E-score” value was inactive: -0.203.

Regarding CGGCCAAG, the “PBM E-score” value was inactive: -0.19.

Regarding CTAGTCAA, the “PBM E-score” value was inactive: 0.0597.

On to ACCATGAT, for which the “PBM E-score” value is inactive: 0.158.

As for GAGGTGCA, the “PBM E-score” value was inactive: -0.0697.

Consider AGAGAAAT, for which the “PBM E-score” value is inactive: -0.0754.

For the sequence AAACGTGG, the “PBM E-score” value is inactive: -0.051.

AGATAATA: the “PBM E-score” value was inactive: 0.0772.

On to AAATGAAT, for which the “PBM E-score” value is inactive: 0.128.

For the sequence CGTTCCTA, the “PBM E-score” value was inactive: -0.0347.

For AAAGCGCC, the “PBM E-score” value was inactive: -0.214.

On to ATACTGCA, for which the “PBM E-score” value is inactive: 0.0723.

For CAGATCAG, the “PBM E-score” value was inactive: 0.112.

CGCCACTC: the “PBM E-score” value was inactive: -0.141.

Turning to ACTGGATC, the “PBM E-score” value is inactive: -0.0498.

Regarding AGCCCTAA, the “PBM E-score” value is inactive: -0.123.

For ACACACGA, the “PBM E-score” value is inactive: 0.261.

For the sequence CTATCCAC, the “PBM E-score” value was inactive: 0.0352.

As to CGACTATA, the “PBM E-score” value was inactive: 0.155.

Consider AGCCCATG, for which the “PBM E-score” value is inactive: 0.00842.

Turning to ATGGCATA, the “PBM E-score” value is inactive: 0.0902.

AGTCTCGG: the “PBM E-score” value was inactive: -0.0794.

As for CTCTTAAA, the “PBM E-score” value was inactive: -0.0169.

CTTATATC: the “PBM E-score” value is inactive: 0.0842.

Take AGATCCCC: the “PBM E-score” value was inactive: -0.129.

On to CCTAATCA, for which the “PBM E-score” value was inactive: 0.0867.

For AGGATAGA, the “PBM E-score” value was inactive: 0.00424.

Regarding CCTTTGGA, the “PBM E-score” value was inactive: -0.134.

On to ATTACTTC, for which the “PBM E-score” value is inactive: 0.0987.

Take AGAAGAAT: the “PBM E-score” value was inactive: -0.00222.

Take AGTCCCCC: the “PBM E-score” value was inactive: -0.323.

Take AAGGCTCT: the “PBM E-score” value is inactive: -0.194.

Consider CACTCACC, for which the “PBM E-score” value was inactive: -0.132.

Take ATGTCCCC: the “PBM E-score” value is inactive: 0.159.

In the case of CTGATGTA, the “PBM E-score” value is inactive: 0.251.

With TCAATGCA, the “PBM E-score” value is inactive: 0.0341.

As for AGCGAATA, the “PBM E-score” value was inactive: 0.0608.

For the sequence AAATGTGT, the “PBM E-score” value is inactive: 0.219.

For the sequence AGACGTCT, the “PBM E-score” value was inactive: -0.0527.

As to GTGAATCA, the “PBM E-score” value is inactive: 0.0399.

On to AACTGTAC, for which the “PBM E-score” value is inactive: 0.086.

For the sequence GTTATACA, the “PBM E-score” value is active: 0.329.

Regarding CCGGCCCC, the “PBM E-score” value was inactive: -0.387.

With ACCAGGGT, the “PBM E-score” value is inactive: -0.0515.

Regarding CAGAATGG, the “PBM E-score” value is inactive: -0.0461.

Take GGGTAAAC: the “PBM E-score” value was inactive: -0.0735.

Take GAACAGTA: the “PBM E-score” value was inactive: 0.173.

Regarding ACCTTGAG, the “PBM E-score” value was inactive: -0.00572.

Take AGTCTTAG: the “PBM E-score” value is inactive: -0.0522.

Consider CAGTTAGG, for which the “PBM E-score” value is inactive: 0.00044.

With GGCACTTA, the “PBM E-score” value is inactive: -0.0626.

As to AAATAGGG, the “PBM E-score” value is inactive: -0.0396.

Regarding TACGCCGA, the “PBM E-score” value was inactive: -0.102.

GGTACCGA: the “PBM E-score” value was inactive: -0.219.

As for CACAGCTG, the “PBM E-score” value was inactive: -0.0851.

Regarding ATTGTACC, the “PBM E-score” value was inactive: 0.2.

As for CTCACGGC, the “PBM E-score” value is inactive: -0.19.

In the case of AACCATCG, the “PBM E-score” value was inactive: 0.0347.

AGCTCAGC: the “PBM E-score” value was inactive: -0.115.

As to AAGCGGGG, the “PBM E-score” value is inactive: -0.172.

As for CGTTTAAG, the “PBM E-score” value is inactive: -0.119.

For the sequence ACGCAGGG, the “PBM E-score” value was inactive: -0.113.

Turning to CGCACTGC, the “PBM E-score” value was inactive: -0.189.

Consider GAAAAACC, for which the “PBM E-score” value is inactive: -0.008.

Turning to AAATTTAC, the “PBM E-score” value is inactive: 0.189.

Regarding CTCGGTGC, the “PBM E-score” value was inactive: -0.176.

As to CTCCAACC, the “PBM E-score” value is inactive: -0.171.

For CGGTTCTA, the “PBM E-score” value was inactive: -0.118.

As for ATGCCCAC, the “PBM E-score” value is inactive: -0.0637.

On to CAATTGCC, for which the “PBM E-score” value is inactive: -0.0272.

Consider GCGTCGCC, for which the “PBM E-score” value was inactive: -0.171.

As to CACCGCCA, the “PBM E-score” value is inactive: -0.113.

For the sequence GGATCACA, the “PBM E-score” value was inactive: 0.0901.

In the case of AGAGATGG, the “PBM E-score” value was inactive: 0.0058.

As for ACAAATCA, the “PBM E-score” value is inactive: 0.198.

As to GTGATAAC, the “PBM E-score” value was inactive: 0.222.

Take TAGAGAGA: the “PBM E-score” value was inactive: -0.0282.

As to CCCCAGGG, the “PBM E-score” value was inactive: -0.297.

With ACCTCTGG, the “PBM E-score” value is inactive: -0.178.

For the sequence CAGACCCC, the “PBM E-score” value is inactive: -0.195.

As for GAACGATA, the “PBM E-score” value is inactive: 0.153.

Turning to ACATGAGC, the “PBM E-score” value was inactive: 0.198.

As to AGTAACAG, the “PBM E-score” value is inactive: 0.19.

Take GACGAATC: the “PBM E-score” value was inactive: 0.0709.

For AAGCCCGG, the “PBM E-score” value is inactive: -0.163.

On to AGATACCC, for which the “PBM E-score” value was inactive: -0.00764.

In the case of CGCTCATA, the “PBM E-score” value is inactive: -0.0281.

Take CAACCAAG: the “PBM E-score” value was inactive: 0.0686.

In the case of CGGGGGCA, the “PBM E-score” value was at least -0.24.

Turning to CAAAAACG, the “PBM E-score” value was inactive: -0.0135.

Take CTCGAAAA: the “PBM E-score” value is inactive: -0.0617.

Consider CAGACCTA, for which the “PBM E-score” value was inactive: 0.00607.

With AACTCCGC, the “PBM E-score” value is inactive: -0.15.

For the sequence CAACGACA, the “PBM E-score” value is inactive: 0.26.

CCTTAGTA: the “PBM E-score” value is inactive: -0.0288.
